In the antibiotic and cytotoxicity screens of Wong et al. (2023) one finds cytotoxicity call and growth inhibition call data, which are given here for 31 compounds.

The other results are listed elsewhere or left out.

For experiment [1], the system named is HSkMC (human skeletal muscle cells). Put plainly: cytotoxicity call (relative viability < 0.9). Conditions: 10 µM.
Experiment [2] relates to S. aureus RN4220. Put plainly: growth inhibition call (relative growth <= 0.2). Conditions: 50 µM.

On to `COc1ccc(-c2cc(=O)c3c(O)cc(OC)cc3o2)cc1`, for which the cytotoxicity call in experiment [1] was “inactive”. The growth inhibition call in experiment [2] was “inactive”.

Take `CO[C@H]1CN(C)C(=O)c2cc(NC(=O)C3CC3)ccc2OC[C@H](C)N(C(=O)CN2CCOCC2)C[C@@H]1C`: the cytotoxicity call in experiment [1] was “inactive”. In addition, the growth inhibition call in experiment [2] is “inactive”.

`C[C@@H]1CN([C@@H](C)CO)C(=O)c2cccc(NC(=O)CCCCCC(=O)Nc3ccccc3N)c2O[C@H]1CN(C)CC1CCCCC1`: the cytotoxicity call in experiment [1] is “inactive”. Besides, the growth inhibition call in experiment [2] is “inactive”.

Consider `COc1cc2nc(N3CCCN(Cc4ccccc4)CC3)nc(Nc3ccc(F)c(Cl)c3)c2cc1OC`, for which the cytotoxicity call in experiment [1] is “active”. In addition, in experiment [2], the growth inhibition call was “inactive”.

Take `O=C(N/N=C/[C@H](O)[C@@H](O)[C@H](O)[C@H](O)CO)c1ccccn1`: the cytotoxicity call in experiment [1] is “inactive”. Besides, in experiment [2], the growth inhibition call was “inactive”.

`CCS(=O)(=O)N1C[C@]2(CN(C2)C(=O)CN2CCOCC2)c2c(n(c3cc(ccc23)OC)C)[C@H]1CO`: in experiment [1], the cytotoxicity call is “inactive”. For the same compound, the growth inhibition call in experiment [2] was “inactive”.

As for `O=c1cn[nH]c(Nc2ccccc2)n1`, the cytotoxicity call in experiment [1] is “inactive”. Further, in experiment [2], the growth inhibition call was “inactive”.

For the compound `Cc1noc(C)c1S(=O)(=O)Nc1ccc2c(c1)C(=O)N([C@@H](C)CO)C[C@@H](C)[C@@H](CN(C)S(=O)(=O)c1ccc(F)cc1)O2`, the cytotoxicity call in experiment [1] is “inactive”. In addition, in experiment [2], the growth inhibition call is “inactive”.

Turning to `CCNC(=O)C[C@@H]1CC[C@H](NC(=O)C2CCOCC2)[C@H](CO)O1`, in experiment [1], the cytotoxicity call was “inactive”. In addition, the growth inhibition call in experiment [2] was “inactive”.

In the case of `CC(C)CC#Cc1ccc2c(c1)O[C@H](CN(C)C(=O)c1ccncc1)[C@H](C)CN([C@H](C)CO)S2(=O)=O`, the cytotoxicity call in experiment [1] was “inactive”. In addition, in experiment [2], the growth inhibition call is “inactive”.

Take `O=C(C[C@@H]1C[C@@H]2c3cc(NS(=O)(=O)c4ccc(F)cc4)ccc3O[C@@H]2[C@H](CO)O1)NCC(F)(F)F`: in experiment [1], the cytotoxicity call was “inactive”. In experiment [2], the growth inhibition call was “inactive”.

For `N#CCCn1nc2c(c1N)CCC2`, the cytotoxicity call in experiment [1] is “inactive”. Moreover, in experiment [2], the growth inhibition call is “inactive”.

In the case of `Nc1ccccc1S(N)(=O)=O`, the cytotoxicity call in experiment [1] is “inactive”. Besides, in experiment [2], the growth inhibition call was “inactive”.

With `Cc1noc(C)c1NC(=O)Nc1ccc2c(c1)C(=O)N([C@H](C)CO)C[C@H](C)[C@@H](CN(C)Cc1ccc(Cl)c(Cl)c1)OCCCC[C@H](C)O2`, the cytotoxicity call in experiment [1] is “inactive”. The growth inhibition call in experiment [2] is “inactive”.

As for `C[C@@H]1CN([C@H](C)CO)C(=O)Cc2cc(NC(=O)Cn3cnnn3)ccc2O[C@@H]1CN(C)Cc1ccc(C(=O)Nc2ccccc2N)cc1`, in experiment [1], the cytotoxicity call is “inactive”. In addition, in experiment [2], the growth inhibition call was “inactive”.

On to `CCS(=O)(=O)Nc1ccc2c(c1)C(=O)N(C)[C@@H]1CC[C@@H](CC(=O)NCCOC)O[C@@H]1CO2`, for which, in experiment [1], the cytotoxicity call was “inactive”. In addition, in experiment [2], the growth inhibition call was “inactive”.

For the compound `O=C(C[C@@H]1C[C@@H]2c3cc(NC(=O)NC4CCCC4)ccc3O[C@@H]2[C@H](CO)O1)NCc1ccc2c(c1)OCO2`, the cytotoxicity call in experiment [1] is “inactive”. Further, the growth inhibition call in experiment [2] was “inactive”.

Regarding `C[C@H](CO)N1C[C@H](C)[C@H](CN(C)S(=O)(=O)c2ccccc2)Oc2c(NC(=O)c3cnccn3)cccc2C1=O`, the cytotoxicity call in experiment [1] was “inactive”. In experiment [2], the growth inhibition call is “inactive”.

As for `COc1ccc(NC(=O)N(C)C[C@@H]2Oc3ccc(NC(=O)CCN4CCOCC4)cc3C(=O)N([C@@H](C)CO)C[C@@H]2C)cc1`, the cytotoxicity call in experiment [1] is “inactive”. The growth inhibition call in experiment [2] is “inactive”.

For the compound `O=C(COP(=O)(O)O)[C@H](O)[C@@H](O)COP(=O)(O)O`, in experiment [1], the cytotoxicity call is “inactive”. Moreover, the growth inhibition call in experiment [2] was “inactive”.

On to `Cc1ccc(S(=O)(=O)N(C)C[C@@H]2Oc3ccc(NC(=O)C4CC4)cc3C(=O)N([C@H](C)CO)C[C@@H]2C)cc1`, for which the cytotoxicity call in experiment [1] was “inactive”. For the same compound, in experiment [2], the growth inhibition call was “inactive”.

For `C[C@H]1CN([C@@H](C)CO)C(=O)Cc2cc(NC(=O)NC3CCCCC3)ccc2O[C@H]1CN(C)Cc1ccc(-c2ccccc2)cc1`, the cytotoxicity call in experiment [1] was “inactive”. Besides, in experiment [2], the growth inhibition call was “inactive”.

Turning to `C[C@H](CO)N1C[C@H](C)[C@H](CN(C)Cc2ccc(Oc3ccccc3)cc2)Oc2ccc(NC(=O)Cn3cnnn3)cc2CC1=O`, the cytotoxicity call in experiment [1] was “inactive”. The growth inhibition call in experiment [2] was “inactive”.

Take `O=C1CCOCCN1`: the cytotoxicity call in experiment [1] is “inactive”. In addition, the growth inhibition call in experiment [2] was “inactive”.

With `COc1cccc(-c2ccc3c(c2)O[C@@H](CN(C)C(=O)C2CCC2)[C@@H](C)CN([C@H](C)CO)S3(=O)=O)c1`, the cytotoxicity call in experiment [1] is “inactive”. The growth inhibition call in experiment [2] is “inactive”.

For the compound `C[C@H]1CN([C@@H](C)CO)C(=O)Cc2cc(NC(=O)Cc3ccccc3)ccc2O[C@@H]1CN(C)Cc1ccc(Cl)c(Cl)c1`, the cytotoxicity call in experiment [1] was “inactive”. The growth inhibition call in experiment [2] is “inactive”.

As for `C[C@@H]1CCCCO[C@@H](CN(C)C(=O)Nc2ccc(C(F)(F)F)cc2)[C@H](C)CN([C@@H](C)CO)C(=O)c2cc(NC(=O)Nc3ccc4c(c3)OCO4)ccc2O1`, the cytotoxicity call in experiment [1] is “inactive”. In experiment [2], the growth inhibition call is “inactive”.

For the compound `C[C@@H]1CCCCO[C@@H](CN(C)Cc2ccc(Cl)c(Cl)c2)[C@@H](C)CN([C@H](C)CO)C(=O)c2cc(NC(=O)Nc3ccc(C(F)(F)F)cc3)ccc2O1`, the cytotoxicity call in experiment [1] was “inactive”. Besides, the growth inhibition call in experiment [2] was “inactive”.

As for `Cc1ccc(S(=O)(=O)Nc2ccc3c(c2)C(=O)N([C@H](C)CO)C[C@H](C)[C@H](CN(C)C(=O)Nc2ccc(C(F)(F)F)cc2)OCCCC[C@@H](C)O3)cc1`, in experiment [1], the cytotoxicity call is “inactive”. Further, the growth inhibition call in experiment [2] was “inactive”.

As to `C[C@@H]1CN([C@@H](C)CO)C(=O)c2c(c3ccccc3n2C)-c2ccccc2CO[C@H]1CN(C)Cc1cccc(C(F)(F)F)c1`, the cytotoxicity call in experiment [1] was “inactive”. Moreover, the growth inhibition call in experiment [2] is “inactive”.

On to `CC(CCC(=O)O)C1CCC2C3C(O)CC4CC(O)CCC4(C)C3CC(O)C12C` (configuration not stated), for which the cytotoxicity call in experiment [1] was “inactive”. In experiment [2], the growth inhibition call is “inactive”.
